In the supplement of paper PMC12217912:
Some of the results follow. The full chains were built here from the parent and the listed change. Inactive controls read about 0.05.

B1: TEV protease; numbered along this chain (parent)
chain: MGESLFKGPRDYNPISSSICHLTNESDGHTTSLYGIGFGPFIITNKHLFRRNNGTLVVQSLHGVFKVKDTTTLQQHLVDGRDMIIIRMPKDFPPFPQKLKFREPQREERICLVTTNFQTKSMSSMVSDTSCTFPSGDGIFWKHWIQTKDGQCGSPLVSTRDGFIVGIHSASNFTNTNNYFTSVPKNFMELLTNQEAQQWVSGWRLNADSVLWGGHKVFMVKPEEPFQPVKEATQL

Variants of: B1
Assay: raw area under fraction-flipped curve 0-4 h after induction (AUC4h, not background-subtracted), DNA-recorder readout of cleavage of the substrate (dimensionless); higher = more cleavage of the substrate by the protease variant
Conditions: temperature: 34 °C; time window: 0-4 h after rhamnose induction
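Further: Bxb1 expression induced with 0.2% (w/v) L-rhamnose at OD600 near 0.5, cultures sampled hourly, flipped fraction per protease–substrate barcode pair counted by paired-end Illumina sequencing.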

Variant	area with substrate ENLYCQS	area with substrate ENLYDQS	area with substrate ENLYEQS	area with substrate ENLYHQS	area with substrate ENLYIQS	area with substrate ENLYKQS	area with substrate ENLYLQS	area with substrate ENLYMQS	area with substrate ENLYNQS	area with substrate ENLYPQS	area with substrate ENLYQQS	area with substrate ENLYRQS	area with substrate ENLYTQS	area with substrate ENLYWQS	area with substrate ENLYYQS	area with substrate ENLYGQS	area with substrate ENLYVQS	area with substrate ENLYSQS
L48K	0.0556	0.0605	0.0582	0.0545	0.0619	0.0485	0.0557	0.0703	0.0551	0.0447	0.064	0.0448	0.0523	0.0651	0.0629	–	–	–
L48I	0.0823	–	0.0717	0.066	0.088	0.0515	–	0.0665	0.0444	0.064	0.0501	–	–	–	0.0541	0.0629	0.103	–
L48S	0.0611	–	0.0642	0.0518	0.0856	0.0353	0.0636	0.0577	0.068	0.0675	0.0738	0.0597	0.0671	0.0748	0.0617	0.0569	0.0692	0.0628
L48F	0.0773	0.0496	0.069	0.0668	–	0.0474	–	0.081	0.0716	0.07	–	0.0642	–	0.0907	0.0459	0.0699	–	–
T31E	0.0981	0.0685	0.0647	0.0824	0.113	0.0455	0.0709	0.0834	0.0552	0.0729	0.0621	0.0614	0.0574	0.0659	0.0631	0.0661	0.12	0.0735
G136Q	0.1	0.0606	–	0.0745	0.135	0.0616	0.0812	–	0.0628	0.0749	0.0701	0.0629	–	0.0836	0.0414	0.0512	0.167	0.0821
G136H	0.0979	0.0649	0.0613	0.0622	–	0.0504	0.0855	0.0818	0.0612	0.0734	0.0805	0.0431	0.0767	0.0782	0.0661	0.0729	0.117	0.0869
P40I	0.0855	0.06	0.097	0.0643	0.0967	–	–	0.0769	0.0545	–	0.0615	0.0438	–	0.0751	0.0637	0.0722	0.102	–
P40T	0.117	–	0.0631	0.0741	0.164	0.058	–	–	0.0694	0.0626	0.0501	0.0648	0.0814	0.0852	0.0674	0.059	0.142	0.0735
P40L	0.079	0.0647	0.0644	0.0607	0.117	0.073	–	0.0652	0.0509	0.0728	0.0563	–	–	–	0.015	–	–	0.0644
T176S	0.086	0.0615	0.0621	0.0691	–	0.0684	–	0.0765	0.067	–	–	0.0644	–	0.0643	–	0.047	0.0878	0.0697
L112N	0.0757	0.066	0.0617	0.0627	0.0677	–	0.0635	0.0524	0.0602	0.0758	0.0564	0.0589	0.0571	0.0659	0.0443	0.0626	0.077	0.0622
L112I	0.0716	0.0687	0.0518	0.0706	–	–	–	–	0.0669	0.0546	–	0.0511	–	0.0657	–	0.0987	0.0697	0.0659
C152I	0.0581	0.0567	0.0629	0.0663	0.0546	0.0625	–	0.052	0.0619	0.0571	–	0.0581	0.0664	0.0595	0.0571	0.0626	0.0586	0.05
S17W	0.0818	0.0606	0.0868	0.0683	0.129	0.0371	0.0764	0.104	0.063	–	0.0631	0.0605	0.0758	–	–	0.0649	–	0.0986
M88E	0.0561	0.0376	0.0445	0.051	0.043	0.026	0.0398	0.0491	0.0391	0.0672	0.0589	0.0109	–	0.0352	–	–	–	0.0595
K216Q	0.0997	–	–	0.0708	0.138	–	–	0.0604	0.0687	–	–	0.0406	0.0904	–	0.0696	0.062	0.0953	0.0658
K216F	0.0849	–	0.0553	0.0642	0.0831	0.0868	0.0651	0.0685	0.082	0.0512	0.062	–	0.0633	–	0.0575	0.0592	0.131	–
K216S	0.0865	0.0719	0.054	0.0643	–	0.0605	–	–	0.0717	0.0692	0.0575	0.0482	0.0684	0.0686	–	–	–	0.0651
K148A	0.0914	0.0576	0.0664	0.0673	0.107	0.0601	0.0812	0.0855	0.0748	0.0741	0.056	0.0585	0.0783	0.093	0.0737	0.0654	0.0935	0.0776
P184S	0.0724	–	0.0709	0.0632	0.101	0.0643	–	0.0905	0.0647	0.0777	0.0641	0.0626	0.0658	0.0745	0.0559	0.054	0.0886	0.0644
P184N	0.0579	0.0611	0.0649	0.0629	–	0.0653	–	0.0768	0.0519	–	–	0.0593	0.084	0.0294	–	–	0.0839	–
F117N	0.088	0.0502	0.0572	0.0587	0.119	–	–	–	0.0745	0.0803	–	0.0632	–	0.0734	0.066	0.068	0.112	0.0827
W144K	0.0733	0.0809	0.0714	–	0.105	–	–	–	0.0559	0.0557	0.071	–	0.0846	–	–	–	0.0888	0.0671
W144H	0.0513	0.0611	0.0596	0.0729	0.0657	0.0702	–	0.0889	0.062	0.0581	–	0.0602	0.101	0.0754	–	0.0663	0.108	0.0759
